The source gives no read counts; variants with many changes may rest on few reads.
B1: LINE1-full (parent)
chain: UACGUAGGUGGUUUUCCCCUGAUAGUGCUAAGGGGGCCUGGAAGUUUGGACUGGGCAGAGCUCAACACAGCGUGGCAAAGUGGCUGUGGCUAGACUGCCUCUCUGGAUUCCUCGUCACUCAGCAGGGCAUCUCUGAGAGAAAUGCC

Variants of: B1
Assay: self-cleavage, relative activity (ratio to wild type); higher = more cleavage; in vitro, sequencing; the parent is a self-cleaving ribozyme
With U26C A59U C66U U100C the self-cleavage was 0.14.
Variant A57G U62C U130C U134C has a self-cleavage of 0.
With U13C U46C A64U the self-cleavage was 0.54.
In the case of U5G U14C U130A, the self-cleavage is reported as 0.37.
Work on U20A U73A U130A yielded a self-cleavage of 0.75.
With G36A U39A U85C U143A the self-cleavage was 0.13.
Work on G35U U46C A117U A129G A140G yielded a self-cleavage of 1.74.
U12C A69C A79G gave a self-cleavage of 0.31.
U20A A59G U100C A124C showed a self-cleavage of 0.37.
Work on U47G U81A A138G yielded a self-cleavage of 1.64.
Work on A43G U112C A121C A142G yielded a self-cleavage of 0.84.
For U20A U45C A78G, the self-cleavage was 1.42.
U12C G54U G137A gave a self-cleavage of 1.08.
A67U A94G U115C C133A A141G gave a self-cleavage of 0.
Variant G34A A77G A136U A141G has a self-cleavage of 1.45.
U26C G40A U47C A64C C66U A117U gave a self-cleavage of 0.
Work on U12C G34A U47A A140G yielded a self-cleavage of 1.08.
A24U U45A A129U U134G A141G gave a self-cleavage of 1.99.
For U14C C84G A92G, the self-cleavage was 0.04.
U73G U87C G106U A142G showed a self-cleavage of 0.
For C19U C38A A77U U87C U134C, the self-cleavage was 0.12.
U15A G27A G34U A57G A136G gave a self-cleavage of 1.84.
With G49A A117U A140G the self-cleavage was 1.28.
For A69G U96C C113U, the self-cleavage was 0.
For U62A A79G A129U U130C, the self-cleavage was 0.
With G36A U100C A107G U108A G144U the self-cleavage was 1.72.
For A57G A67G U115C A117U, the self-cleavage was 0.48.
For U9A A57G A121G, the self-cleavage was 0.
A59G U62C U73A U119C gave a self-cleavage of 0.42.
For U1C A22G A79G A136G, the self-cleavage was 0.61.
Variant U45C U102C U130C has a self-cleavage of 2.76.
Work on G80A U87C A142G yielded a self-cleavage of 0.28.
For U1C A6G U143C, the self-cleavage was 1.02.
In the case of U45A A92G G125U, the self-cleavage is reported as 0.03.
In the case of U12C U108C C131A, the self-cleavage is reported as 1.86.
Variant A92G G114A A121G A141G has a self-cleavage of 0.11.
U13C U14C A30G gave a self-cleavage of 0.88.
U23C U91A A129G gave a self-cleavage of 2.04.
Variant U62C A77G A138G A141G has a self-cleavage of 0.
Variant U9A A43U U47A A65C U104C A141G has a self-cleavage of 0.02.
U45C G114A A117G gave a self-cleavage of 1.75.
With C76U U87A A124U G127U the self-cleavage was 0.08.
With U14A U26C G60A A121U the self-cleavage was 0.05.
In the case of A2G U15C U47C, the self-cleavage is reported as 2.3.
In the case of G74A U104A U143C, the self-cleavage is reported as 1.07.
In the case of A24U A65G G114A A138G, the self-cleavage is reported as 0.09.
In the case of C120A A121G G125U, the self-cleavage is reported as 1.54.
A79G U87C U104A A140G showed a self-cleavage of 0.
With A92G U112G A117U C131U the self-cleavage was 0.2.
In the case of U26C U45C U81A A136G, the self-cleavage is reported as 2.3.
With U15C U39C C133A the self-cleavage was 0.95.
Variant A22G U26C A124U has a self-cleavage of 0.29.
U85A U112A A136G showed a self-cleavage of 0.01.
For A30C U96C A107G A140G, the self-cleavage was 0.
With U14A U96C A136G the self-cleavage was 0.05.
For C19U A43G A64U C76U, the self-cleavage was 1.15.
For U23C U26C G72A A121G A141G, the self-cleavage was 1.84.
G54A U81C U96C U112A U130C A136G gave a self-cleavage of 0.
In the case of U20A U91A A138G U143C, the self-cleavage is reported as 1.37.
In the case of U23A U104C C120U, the self-cleavage is reported as 1.59.
A24U U73A A124G A136G showed a self-cleavage of 1.76.
With U47G A65G U87A the self-cleavage was 0.
With U5G U20C U100C the self-cleavage was 0.38.
U1C G10A U62A U104C showed a self-cleavage of 0.05.
With C19U A42G C51A the self-cleavage was 0.62.
Variant A22G U52C U102C has a self-cleavage of 1.44.
For G34A U119C A136U, the self-cleavage was 1.55.
With A24U A64U A94G the self-cleavage was 0.07.
For A22G G58A A138G, the self-cleavage was 0.11.
A2G G89A U102C U134C U143A gave a self-cleavage of 0.16.
U20C A31G U46A A138G A141G showed a self-cleavage of 0.87.
In the case of U12G A64G A140G, the self-cleavage is reported as 0.22.
Variant U1C A59G U109C U119A has a self-cleavage of 0.15.
Variant U15C A22U U46C U85C G114U A141G has a self-cleavage of 0.28.
With A64G U91C A138U the self-cleavage was 0.
A79G U81A C95U showed a self-cleavage of 0.33.
U13A A77G U85A U100C U102C gave a self-cleavage of 0.21.
In the case of A57G U109A C116A A117G A142G, the self-cleavage is reported as 0.25.
For U20C A43G A79U U100C U134A, the self-cleavage was 2.8.
For A42G U62C G125A A136U, the self-cleavage was 0.03.
In the case of U1C U47C A79U, the self-cleavage is reported as 1.47.
With C3U C66U U87A G127A the self-cleavage was 0.03.
For A24U A50U G53A, the self-cleavage was 0.63.
With A31U A59G U108C the self-cleavage was 0.
U15C U52A U96A U100A showed a self-cleavage of 0.11.
With U12C U26A C66A U85C the self-cleavage was 0.08.
U26A A42G U52A gave a self-cleavage of 0.9.
Variant A31G A43G U46C has a self-cleavage of 0.66.
Variant A50U A78G C113U has a self-cleavage of 0.59.
Variant A78G U85C U96A U104C has a self-cleavage of 0.21.
For C61G C128U A138G A141G, the self-cleavage was 0.01.
U46C G58U C116U G125U showed a self-cleavage of 0.03.
For A30G A94C A124G, the self-cleavage was 0.61.
With G8A U87C A136G the self-cleavage was 0.28.
G32A G40U A50G gave a self-cleavage of 1.03.
A57U A77U A138G showed a self-cleavage of 0.34.
For C37U A69G A78G U100C A140G, the self-cleavage was 0.37.
With U12G C17A U143C the self-cleavage was 0.58.
U39C G54A A77G U102C U112C showed a self-cleavage of 0.69.
U12C A43G A77G U108C gave a self-cleavage of 0.
U15A G36U A69G U73A A124U gave a self-cleavage of 0.24.
U47C C131A A140G gave a self-cleavage of 1.7.
Work on U1A U20G U47C G49A A65G U130C A138U A142G yielded a self-cleavage of 0.57.
A31G A43G A92G C113U gave a self-cleavage of 0.14.
Variant A22G U47C U52A G105C has a self-cleavage of 1.7.
U12A U13C U45G U62A A136G A138G gave a self-cleavage of 0.
A67G U143A G144A gave a self-cleavage of 0.79.
For U108A A129G A142G, the self-cleavage was 1.77.
Work on U13C U20C U52C A141G yielded a self-cleavage of 1.47.
Work on A31G A59G A69G U108C G126A yielded a self-cleavage of 0.38.
With U13C U62G A77G U87A A138G the self-cleavage was 0.22.
With A22G A59G A78G the self-cleavage was 0.19.
Variant U1C A24U U112C U143C has a self-cleavage of 0.69.
For A78U U104A A117G A138G, the self-cleavage was 1.89.
G11A A24G A59G gave a self-cleavage of 0.23.
Work on G11A U20A U119C A138G yielded a self-cleavage of 2.42.
U45C A57U U102C showed a self-cleavage of 0.
Work on G48A G72C A94G U115C yielded a self-cleavage of 0.28.
For U20C U47C C51U, the self-cleavage was 1.57.
In the case of U9A G21A C28G G83U C123U A142G, the self-cleavage is reported as 0.72.
U20A U47C U96A gave a self-cleavage of 0.04.
G7A A59G A64C gave a self-cleavage of 0.03.
With U47C A78G U96A the self-cleavage was 0.13.
In the case of A50G U87C A129U, the self-cleavage is reported as 0.
Variant A65U U104C U112C A136G has a self-cleavage of 0.
A42G C120A C128U showed a self-cleavage of 0.97.
U14A U39C U87A showed a self-cleavage of 0.03.
With U62C U81A U96C the self-cleavage was 0.04.
In the case of U26C C56G U87C G125U, the self-cleavage is reported as 0.03.
G27A U29C A78G U134C showed a self-cleavage of 0.32.
Work on U13C A42G U46A G58A U134C yielded a self-cleavage of 0.07.
For U26G C113A A138G, the self-cleavage was 1.28.
C18U G53U G127C A136U gave a self-cleavage of 1.19.
U9C U46C U96G showed a self-cleavage of 0.
Work on U26G U134A A141G yielded a self-cleavage of 1.14.
U14C U39A A69C gave a self-cleavage of 0.16.
A138G A140G A142G gave a self-cleavage of 0.2.
Work on U13C A65C A117U A136G yielded a self-cleavage of 0.13.
Variant U85C G97A A141G has a self-cleavage of 0.04.
With A64G A77G A117G U143A the self-cleavage was 0.38.
U26C U52C U115A gave a self-cleavage of 0.74.
Work on U20C U45G U73A A117U yielded a self-cleavage of 1.66.
Variant A30U U39C G86U has a self-cleavage of 0.11.
C19U U109A A129G gave a self-cleavage of 2.1.
Variant A57U U108C A141G has a self-cleavage of 0.14.
Variant U12G A22U U102C A107G A142G has a self-cleavage of 0.
Variant A79G C133A A142G has a self-cleavage of 0.65.
Work on U5C A24U U47C U130C yielded a self-cleavage of 0.68.
Variant A6U U46C U91C U112C A138G has a self-cleavage of 0.
In the case of U20A A22G A50U, the self-cleavage is reported as 0.69.
U14A U23C U46C A64U gave a self-cleavage of 0.84.
With C76U U91C C103A A117G the self-cleavage was 0.71.
A42G C113U A141G gave a self-cleavage of 1.44.
Work on U13A U15C A69G U73C yielded a self-cleavage of 1.19.
Work on U52C U62A A79C A129G yielded a self-cleavage of 0.
With U14C A65G U102C U119C the self-cleavage was 0.
A59G A64U U73C G93U gave a self-cleavage of 0.04.
A24G U45G A124G gave a self-cleavage of 0.63.
With U45C A50U U91C the self-cleavage was 0.
In the case of U5C G58A A129G, the self-cleavage is reported as 0.19.
For U15C C37A U47C U104C, the self-cleavage was 1.63.
For G4A U26A U87A, the self-cleavage was 0.05.
In the case of U13C A50U U73C U108C C113U U132C, the self-cleavage is reported as 2.51.
Work on U9C U46C U62C G75U A117G U130C yielded a self-cleavage of 0.
Variant U62C G114A G126A has a self-cleavage of 0.08.
Variant U45G A57U U115C A124G A138U has a self-cleavage of 0.
U9C U96C A136G U143A gave a self-cleavage of 0.46.

— the RNAGym collection of RNA variant scans (doi:10.7554/elife.90254)
